The source of these data is PubChem BioAssay (NCI).

Molecules are shown by their SMILES.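 Interpolation was linear, between the two tested concentrations surrounding the appropriate level; five concentrations were tested over 48 hours in 96-well plates. GI50 = concentration required for 50% inhibition of growth.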 A number of entries come with more than one value. The other results are left out here. An entry can have further records. For part of these data: The tests behind the records often covered other concentration ranges, which the source does not state; a value can be the end of its range. For part of these data: The values listed for one entry repeat one measurement (runs, samples, wells, individuals or studies). Brackets tell where a record comes from. A, B and so on number the origins entry by entry.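 Definition used: TGI = concentration required for complete inhibition of growth.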 Where only a bound is given, the exact number is not on record here.

Test systems include K-562 leukemia; CCRF-CEM leukemia; RPMI-8226 leukemia; OVCAR-4 ovarian; ACHN renal; SF-268 CNS; HT29 colon; HS 578T breast; KM12 colon; T-47D breast; SNB-78 CNS; HOP-18 NSCLC; HCT-15 colon; DU-145 prostate; RXF 393 renal; PC-3 prostate; MDA-N; HCT-116 colon.
Experiment in all cases: DTP human tumour cell line panel, 48 h

As for `COc1ccc2c(c1)/c(=C/c1ccc(N(C)C)cc1)c1cc(-c3ccccc3)[n+](C)n12`, the TGI (usually the concentration at which net growth stops) with K-562 leukemia was 1.29 µM and > 100 µM; in the test on CCRF-CEM leukemia it was 2.69 µM and > 100 µM; in the test with RPMI-8226 leukemia it was 887 nM and > 100 µM.
With `CN[C@@H]1C[C@H]2O[C@@](C)([C@@H]1OC)n1c3ccccc3c3c4c(c5c6ccccc6n2c5c31)C(=O)N[C@@H]4O`, the TGI in the test with OVCAR-4 ovarian was 187 nM and 2.23 µM; in the test on ACHN renal, 31.3 nM [1 test] and 12.9 µM [mean of 2 tests]; with K-562 leukemia, 300 nM and 14.9 µM; in the test on SF-268 CNS, 48.5 nM and 2.08 µM; in the test on HT29 colon, 300 nM and 8.03 µM; in the test on HS 578T breast, 27.4 nM and 287 nM. For the same molecule, the TGI in the test with KM12 colon was 65.6 nM and 2.02 µM; in the test with RPMI-8226 leukemia it was 193 nM and 9.79 µM.
On to `CC[C@@]1(O)C(=O)OCc2c1cc1n(c2=O)Cc2cc3cc(N)ccc3nc2-1`, for which the TGI is > 100 µM [mean of 2 tests] and 8.23 µM [mean of 4 tests] with K-562 leukemia; 2 µM and 18.8 nM in the test with T-47D breast; 1.35 µM and > 100 µM in the test on CCRF-CEM leukemia; 802 nM and 8.05 µM in the test on SNB-78 CNS; > 100 µM [1 test] and 711 nM [mean of 3 tests] in the test on HT29 colon; > 100 µM [1 test] and 8.29 µM [mean of 3 tests] with HS 578T breast. The TGI in the test on HCT-15 colon is > 100 µM [mean of 2 tests] and 5.75 µM [mean of 4 tests]; in the test with DU-145 prostate, 815 nM and 38.1 nM; with RXF 393 renal, 36.2 nM [1 test] and 521 nM [mean of 4 tests]; in the test with PC-3 prostate it was > 100 µM [1 test] and 9.14 µM [mean of 3 tests]. The GI50 – broadly, the concentration that inhibits growth by half – in the test on HOP-18 NSCLC is 5.79 nM and 59.9 nM.
As for `c1cc(CNC2C3CCC(C3)C2c2c[nH]c3ccccc23)cc(CNC2C3CCC(C3)C2c2c[nH]c3ccccc23)c1` (configuration not stated), the GI50 with MDA-N was 276 nM [sample A, 1 test] and 11.6 µM [sample B, 1 test]; in the test on HCT-116 colon, 201 nM [sample A, 1 test] and 11.9 µM [sample B, 1 test]. Further, the TGI in the test on MDA-N was 739 nM [sample A, 1 test] and 24.7 µM [sample B, 1 test]; in the test with HT29 colon, 1.05 µM [sample A, 1 test] and 12.6 µM [sample B, 1 test]; in the test on HCT-116 colon, 380 nM [sample A, 1 test] and 24.2 µM [sample B, 1 test].
